# Test results taken from PubChem BioAssay AID488969 (Vanderbilt High Throughput Screening Facility, 2010).
# In all, about 110,000 compounds were measured (“z-score”: median about -0.1, highest 2% from about 2 on). Some of the results follow. Activity calls are given as the source filed them.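 The calls were made as follows: active = z-score in the third read window above 3 or below -3; inactive = the rest.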
# Target: Metabotropic glutamate receptor 8 (Rattus norvegicus) (UniProt P70579)
# Test: mGluR8 Gi/Go-coupled signaling modulation – cell-based, rat, thallium flux, HTS, primary screen (AID 488969)
# Details: HEK293 rat mGluR8, GIRK (G protein-gated inwardly rectifying potassium channel) thallium flux, FluoZin2; at 10 µM; stronger effect = higher value; submaximal glutamate (EC20) added with thallium
# Chain of UniProt P70579 (P70579 whole entry, looked up): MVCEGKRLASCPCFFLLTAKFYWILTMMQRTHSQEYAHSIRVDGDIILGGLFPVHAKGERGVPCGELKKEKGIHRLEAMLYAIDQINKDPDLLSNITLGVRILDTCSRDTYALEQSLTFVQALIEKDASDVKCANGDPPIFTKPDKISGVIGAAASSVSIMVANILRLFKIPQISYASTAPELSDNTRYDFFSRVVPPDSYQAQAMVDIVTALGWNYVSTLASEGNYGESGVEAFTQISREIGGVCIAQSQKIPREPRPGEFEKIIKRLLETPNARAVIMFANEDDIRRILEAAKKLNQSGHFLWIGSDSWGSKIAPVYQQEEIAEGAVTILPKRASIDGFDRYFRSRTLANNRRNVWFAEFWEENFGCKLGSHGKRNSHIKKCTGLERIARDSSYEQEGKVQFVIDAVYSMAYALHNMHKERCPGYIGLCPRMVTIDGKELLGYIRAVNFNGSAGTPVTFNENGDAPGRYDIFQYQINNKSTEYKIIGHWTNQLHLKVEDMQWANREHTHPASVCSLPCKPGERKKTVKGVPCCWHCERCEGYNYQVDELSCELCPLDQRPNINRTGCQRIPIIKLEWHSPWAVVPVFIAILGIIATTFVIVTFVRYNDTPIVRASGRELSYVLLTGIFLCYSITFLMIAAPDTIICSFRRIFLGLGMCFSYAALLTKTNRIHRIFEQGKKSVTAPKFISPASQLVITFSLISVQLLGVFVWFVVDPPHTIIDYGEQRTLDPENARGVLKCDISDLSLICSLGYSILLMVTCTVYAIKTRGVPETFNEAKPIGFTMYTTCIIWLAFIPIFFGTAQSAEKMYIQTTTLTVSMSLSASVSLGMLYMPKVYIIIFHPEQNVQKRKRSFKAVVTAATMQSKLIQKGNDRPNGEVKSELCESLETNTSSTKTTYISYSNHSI
row,Structure (SMILES),z-score
1,CN(Cc1ccccc1)C(=O)CCCn1c(=O)[nH]c2cc(Cl)ccc2c1=O,0.953
2,COc1ccc2c(c1[N+](=O)[O-])CCC/C2=N/OC(=O)c1ccccc1SC,-0.13
3,COc1cc(C(C)=O)ccc1Oc1ncnc2c1cnn2-c1ccc(C)c(C)c1,0.00306
4,CNC(=O)NC(=O)CSc1nnc(C(F)(F)F)n1C,-0.759
5,Fc1ccccc1CSc1nc2ncccc2[nH]1,-0.00473
6,Nc1ccc2nc(SCc3ccc([N+](=O)[O-])cc3)sc2c1,-0.102
7,COc1ccc(CCNC(=O)c2cc(-c3cc(Cl)cc(Cl)c3)oc2C)cc1,0.0176
8,O=C(Cn1[nH]c(=O)c2ccccc2c1=O)NC1CCN(Cc2ccccc2)CC1,-0.0419
9,COc1ccccc1NC(=O)CSc1nnc(-c2ccncc2)o1,0.38
10,O=C(OCc1ccc(Cl)c(Cl)c1)c1ccccn1,0.0457
11,COc1ccc(C(=O)c2sc(Nc3ccccc3)c(C(=O)Nc3ccc(OC)c(OC)c3)c2N)cc1,-0.23
12,COC(=O)C1=C(N)Oc2cc(C)n(CCc3ccccc3)c(=O)c2C1c1cccnc1 (stereo not drawn),-0.611
13,Cc1cc(Cl)c(S(=O)(=O)N2CCCCCC2)cc1OCC(=O)NC1CCCCC1,-0.622
14,CCOc1cc(CNc2cccc3ccccc23)cc(Br)c1OCC(=O)NC(C)(C)C,-0.15
15,CC12CCC(C(=O)N(NC(=O)c3ccc(O)cc3)C1=O)C2(C)C (stereo not drawn),0.245
16,Cc1ccc(-n2ncc3c(=O)n(CC(=O)N4CCCCCC4)cnc32)cc1,-0.166
17,N#Cc1ccc(NC(=S)Nc2ccccc2)cc1,-0.118
18,C[N+]1(CC(=O)OCCCc2ccccc2)CCCC1,0.0174
19,Cc1cc(OCC(O)CN(CCO)CCO)ccc1Cl (stereo not drawn),0.338
20,O=C(CCCn1c(SCC(=O)NC2CCCCC2)nc2ccccc2c1=O)NCC1CCCO1 (stereo not drawn),-0.0674
21,CC(C)COP(=O)(OCC(C)C)C(Nc1ccccc1)c1ccc2c(c1)OCO2 (stereo not drawn),-0.389
22,NC(=O)C1CCN(CC(=O)Nc2ccccc2Sc2ccccc2)CC1,-0.504

row,Structure (SMILES),z-score
1,COc1ccc(-n2c3c(c(=O)[nH]c2=O)C(C(F)(F)F)(C(F)(F)F)N=C(CC(C)C)N3)cc1,-0.198
2,COc1ccc(S(=O)(=O)N2CCOCC2)cc1Cl,-0.331
3,COCCN1Cc2cccc(C(=O)N3CCN(c4ccccc4)CC3)c2C1=O,0.197
4,CCOC(=O)c1c(NC(=O)CSc2ncnc3ccccc23)sc(C(C)=O)c1C,-0.222
5,CCN1CCCC1CNC(=O)C1CCN(Cc2nc(-c3cccc(Br)c3)oc2C)CC1 (stereo not drawn),active: 4.3
6,CCSc1nnc2c(n1)OC1(CCCC1)Nc1ccccc1-2,-0.448
7,CC(C)N1C(=O)/C(=C\c2nc3ccccc3c(=O)n2-c2ccccc2)c2ccccc21,0.0165
8,CCOC(=O)c1cc(C)sc1NC(=O)C1CCC1,-2.58
9,COc1ccc(N2CCN(C(=O)CC34CC5CC(CC(C5)C3)C4)CC2)c([N+](=O)[O-])c1,0.0546
10,Nc1ccc2oc3ncccc3c(=O)c2c1,-0.0378
11,CCC(=O)Nc1cccc(NC(=O)CSc2nnc(-c3ccc(NS(C)(=O)=O)cc3)n2CC)c1,-0.166
12,Cc1ccc(SC(C)C(=O)NCC(C)C)cc1 (stereo not drawn),-0.00745
13,O=C(CSc1nccn1-c1cccc(Cl)c1)Nc1ccc2c(c1)OCCO2,-0.509
14,Cn1c(CNC(=O)c2ccccc2F)nnc1SCc1ccc(F)cc1,0.297
15,CCn1c(CC(=O)Nc2cccc(OC)c2)nnc1SCC(=O)Nc1nccs1,-0.0961
16,COc1cc(C(C)=O)ccc1OC(=O)C(C)N1C(=O)c2ccccc2C1=O (stereo not drawn),-0.555
17,COc1ccc(-c2csc(N(CCc3ccc(OC)c(OC)c3)C(=O)COc3ccccc3)n2)cc1,-0.0301
18,O=C(c1cc([N+](=O)[O-])ccc1Cl)N1CCN(c2ccc([N+](=O)[O-])cc2)CC1,-0.595
19,O=C1Nc2ccc(S(=O)(=O)NCc3ccccn3)c3cccc1c23,-0.472
20,Nn1c(SCC(=O)N2CCN(S(=O)(=O)c3ccccc3)CC2)nnc1-c1cccs1,-0.168
21,Cc1ccc(NC(=S)N2CCC(c3nc4ccccc4s3)CC2)cc1,0.0218
22,S=C(Nc1ccccc1)Nc1ccc(OCc2ccc(Cl)cc2Cl)cc1,-0.223

row,Structure (SMILES),z-score
1,CCCc1cc(C(=O)Nc2sc3c(c2C(=O)OCC)CCCC3)no1,1.3
2,C/C(Cl)=C\Cn1c(N2CCCCCC2)nc2c1c(=O)n(C)c(=O)n2C,-0.0856
3,N#Cc1ccccc1NC(=O)c1ccccc1OCC(=O)Nc1ccc2c(c1)oc1ccccc12,-0.362
4,O=C(Nc1ccc(N2CCOCC2)cc1)Nc1ccc2nc(-c3ccco3)c(-c3ccco3)nc2c1,-0.684
5,Cn1nc(C(F)(F)F)c(C#N)c1N1CCN(c2cccc(C(F)(F)F)c2)CC1,-0.0641
6,CCOC(=O)CSc1nnc(NCC(=O)OC(C)C)c(=O)[nH]1,-0.488
7,Cc1ccc(C)c(C(=O)NCc2ccncc2)c1,-0.383
8,CNc1c2c(nn1C)CCCC2,0.166
9,CC1OC(C)(C)OC1C1CNc2nc(NC(=O)C(C)(C)C)[nH]c(=O)c2N1C(=O)c1cccnc1 (stereo not drawn),-0.0365
10,NC(=O)COc1ncn(-c2ccccc2)n1,0.311
11,c1ccc(NCc2nc(-c3ccccc3)no2)cc1,-0.0827
12,O=C(Nc1ccc2c(c1)OCCO2)C(c1ccc(F)cc1)N1CCCCC1 (stereo not drawn),-0.253
13,CCOC(=O)c1cnc(-c2cccc(OC)c2)[nH]c1=O,0.527
14,Cc1ccc(/C=C2\SC(=S)N(C(Cc3ccccc3)C(=O)O)C2=O)cc1 (stereo not drawn),-0.753
15,Cn1c(=O)c2c(SCc3cccc(C(F)(F)F)c3)nc(-c3ccco3)nc2n(C)c1=O,-0.194
16,Cc1ccc(N2C(=O)CSC2c2cccnc2)cc1F (stereo not drawn),-0.152
17,COc1cccc(-c2nc(CS(=O)(=O)CC(=O)NCCC(C)C)c(C)o2)c1,0.137
18,Cc1ccc(Cl)cc1N1CCN(C(=O)c2ccc(CN3CCOCC3)cc2)CC1,-1.23
19,COC(=O)c1ccc(C)c(NC(=O)CN(c2ccc3c(c2)OCO3)S(C)(=O)=O)c1,0.175
20,O=C(NC(Nc1nc2ccc([N+](=O)[O-])cc2s1)(C(F)(F)F)C(F)(F)F)c1ccccc1Cl,active: 9.65
21,CCc1ccc2[nH]c(O)c(N=Nc3nc(-c4ccccc4)cs3)c2c1,2.89
22,COc1cccc(N(C(=O)CNC(=O)c2ccco2)C(C(=O)NC2CCCC2)c2ccncc2)c1 (stereo not drawn),1.01

row,Structure (SMILES),z-score
1,COc1ccc(CC(=O)Nc2ccc(-c3noc(-c4ccc(Cl)cc4)n3)cc2)cc1,-0.648
2,COc1ccccc1CNC(=O)C1=C(C)C(=O)OC12CCC(C)CC2 (stereo not drawn),-0.139
3,CCC(CC)NC(=O)COC(=O)c1ccc(NS(=O)(=O)c2ccc3c(c2)OCCO3)cc1,-0.43
4,CCC(=O)c1c[nH]c(C(=O)NCCCn2ccnc2)c1,0.09
5,CC1CCCC(NC(=O)COC(=O)COc2ccc(Cl)cc2)C1C (stereo not drawn),-0.271
6,COc1cc(C(=O)Nc2nc3ccc(C)cc3s2)ccc1OCc1c(C)noc1C,-0.307
7,CCOc1cccc(C(=O)Nc2cccc(C(=O)NCC(C)C)c2)c1,-0.422
8,c1ccc2c(c1)CCN(c1nc3cc4c(cc3s1)OCO4)C2,0.247
9,O=C1C(NS(=O)(=O)c2cccs2)=C(N2CCN(c3cccc(Cl)c3)CC2)C(=O)c2ccccc21,-0.0984
10,Cc1ccc(-c2ccnc(=S)[nH]2)cc1,0.997
11,Cc1sc2ncn(CC(=O)OC(C)C(=O)NC(C)(C)C)c(=O)c2c1C (stereo not drawn),-0.339
12,Cc1ccc(N2CC(C(=O)NCCC(C)C)CC2=O)cc1 (stereo not drawn),-0.0128
13,Cc1ccc(S(=O)(=O)NC2CCCC(C(=O)O)C2)cc1 (stereo not drawn),0.0898
14,O=c1cc2c(nn1Cc1ccc(Cl)cc1)-c1ccccc1CC2,0.763
15,CS(=O)(=O)N1CCN(c2ncccn2)CC1,0.25
16,O=C(O)C1C2C=CC3(CN(c4cccc(C(F)(F)F)c4)C(=O)C13)O2 (stereo not drawn),0.0234
17,Cc1cc(C)c2c(-n3cccc3)c(C(=O)NNS(=O)(=O)c3ccc(Br)cc3)sc2n1,0.741
18,COc1ccc(CCNc2nc3ccccc3n3nnnc23)cc1OC,-0.352
19,CC(C)CNC(=O)c1ccccc1NC(=O)c1ccccc1N(C)S(C)(=O)=O,0.341
20,Cc1sc(NC(=O)c2ccco2)c(C(c2cccnc2)N2CCC(C)CC2)c1C (stereo not drawn),-0.126
21,CCC1CC2(C)NC(=O)c3c(sc4c3CC(C)(C)OC4)N2C1=O (stereo not drawn),-0.0237
22,CCNC(=O)c1sc(=S)n(CC)c1N,0.214

row,Structure (SMILES),z-score
1,Cc1ccc(N2C(=O)CSC2c2cccs2)cc1 (stereo not drawn),0.358
2,CCOC(=O)c1cc2sc(C)cc2n1CC(=O)N1CCN(C(=O)c2ccco2)CC1,-0.185
3,COn1c2c(c3c4no[n+]([O-])c4ccc31)CCCC2,-0.414
4,O=[N+]([O-])c1cc2c(c(CSc3nnc(Nc4ccccc4)s3)c1)OCOC2,0.199
5,COCCCNC(=O)CN1CCN(Cc2ccccc2Cl)C1=O,-0.0179
6,COc1ccc2[nH]c(C)c(C(=O)CN3CCN(C/C=C/c4ccccc4)CC3)c2c1,0.0969
7,C=CCOC(=O)C1=C(C)NC(SCC(=O)N(CC)CC)=C(C#N)C1c1ccco1 (stereo not drawn),-0.388
8,COc1ccc2c(c1)C(=NN)c1cc(OC)ccc1-2,-0.189
9,O=C(c1ccccc1)c1c(O)nc(-c2ccccc2)n(-c2ccccc2)c1=O,-0.427
10,Nc1ncnc2oc(-c3ccco3)c(-c3ccco3)c12,-0.454
11,N#Cc1ncc(C(F)(F)F)cc1Sc1ccccc1N,-0.463
12,O=c1c2cn[nH]c2[nH]c(=S)n1-c1ccccc1,-0.468
13,c1ccc2nc(N3CCOCC3)cnc2c1,0.591
14,Cc1[nH]c2ccccc2c1C(=O)COC(=O)c1c(-c2c(F)cccc2Cl)noc1C,-0.0597
15,COc1ccc(/C=C\C(=O)CC(O)(c2ccccc2)C(F)(F)F)cc1 (stereo not drawn),-0.0737
16,COc1cc2[nH]c(=S)nc(NCC3CCCO3)c2cc1OC (stereo not drawn),0.919
17,Cc1ccc(C)c(N2CCN(C(=O)CCCN3C(=S)NC(C)(C)CC3C)CC2)c1 (stereo not drawn),0.0362
18,O=C(Nc1cccnc1)c1ccc(Oc2ccccc2)cc1,-0.351
19,CC(=O)Nc1ccc(NC(=O)c2cc(C)nn2-c2ccccc2)cc1,0.209
20,CCN(CC)C(=O)c1cccc2c1C(=O)c1ccccc1-2,-0.0156
